Assay results: ChEMBL document CHEMBL4888484, “Replenishing the malaria drug discovery pipeline: Screening and hit evaluation of the MMV Hit Generation Library 1 (HGL1) against asexual blood stage Plasmodium falciparum ,using a nano luciferase reporter read-out” (2022)
About 540 (0.36%) of roughly 150,000 compounds showed an effect of 50% or more. The list shows a part of the results.

Test system: Plasmodium falciparum
Test: Primary screen in NF54 nanoGlo assay, in single point, at 2uM, 72h; a lower Z score goes with more inhibition
Format: functional, Erythrocyte
Conditions: timepoint 72 hour

| SMILES | % Inhibition [%] | Z score |
| --- | --- | --- |
| CC(NC(=O)NC(C)C(=O)NCc1ccccc1)C(=O)NCc1ccccc1 (stereo unspecified) | -2 | 0.34 |
| COc1ccc(-c2noc(CS(=O)(=O)Cc3cc(C)on3)n2)cc1OC | -12 | 1.86 |
| Cc1cccc(NC(=O)CN2CCN(S(=O)(=O)c3cnn(C)c3C)CC2)c1C | -47 | 5.54 |
| CN(CCO)C(=O)N[C@H](c1ccccc1)c1nc(C(C)(C)C)cs1 | 12 | -1.6 |
| Cc1noc(C)c1CC(=O)N1CCC(N2C(=O)COC2=O)CC1 | -7 | 1.42 |
| COCCOc1ccc(F)cc1NC(=O)c1ccc(-n2nc(C)nc2C)cc1 | 1 | -0.14 |
| C=CCC[C@@H](CN1CCCOCC1)Oc1cc(C#N)ccn1 | 4 | -0.72 |
| CC[C@](NC(=O)c1cccc2cc[nH]c12)(C(=O)O)c1ccccc1 | 1 | -0.16 |
| Cc1ccc(C(O)CNC2CN(Cc3ccccc3)CCC2C)cc1 (stereo unspecified) | 17 | -2.03 |
| NC(=O)N1CCC[C@H]1C(=O)N1CCCN(C(=O)C(F)(F)F)CC1 | 2 | -0.46 |
| O=C(c1nccc2ccccc12)N1CC(CF)C1 | -15 | 1.88 |
| CCn1nc(-c2ccc(OC)c(OC)c2)c2c(=O)n(C)c(=O)[nH]c21 | -6 | 0.86 |
| O=C1N(C2CCCCC2)C[C@H]2CN(Cc3ccc(F)cc3)CCN12 | -8 | 1.21 |
| c1nc(CN2CC[C@H](N3CCCCC3)C2)cs1 | -20 | 1.87 |
| COC(=O)[C@H]1CN(C(=O)c2cc(C)sn2)C[C@@H]1c1ccc(O)cc1 | -18 | 3.5 |
| CCc1ccc(NCc2cn3ccccc3c2C#N)cc1 | 0 | 0.03 |
| CCn1c([C@H]2CC(=O)N(Cc3ccccc3)C2)n[nH]c1=O | 0 | 0.06 |
| CC1CC1C(=O)Nc1cc(S(=O)(=O)N2CCOCC2)ccc1Oc1ccc(F)cc1 (stereo unspecified) | 6 | -0.5 |
| CC(=O)c1c(/C=C/C2CCCCC2)cnn1C | -10 | 0.92 |
| CC(C)(CNC(=O)c1cc(-c2cccc(Br)c2)nc2ccccc12)CNC(=O)c1cc(-c2cccc(Br)c2)nc2ccccc12 | -35 | 4.1 |
| O=C(NCc1ccco1)c1c[nH]c(=O)n(Cc2ccc3c(c2)OCO3)c1=O | -10 | 1.72 |
| COCC1CCN(CC(=O)N2CC(=O)Nc3ccccc32)CC1 | -2 | 0.26 |

| SMILES | % Inhibition [%] | Z score |
| --- | --- | --- |
| CC(=O)NC1CCC(N[C@@H](C)COc2ccccc2C)CC1 (stereo partly specified) | 2 | -0.36 |
| O=C(Nc1nc2c(s1)CN(C(=O)Nc1ccc(Cl)c(Cl)c1)CC2)c1cnccn1 | -5 | 0.67 |
| Cc1n[nH]nc1C(=O)N[C@H](c1ccccc1)c1cc2ccccc2o1 | -2 | 0.23 |
| O=C1CCC[C@H](CC(=O)N2CCOc3c2ccc(F)c3F)N1 | -9 | 0.76 |
| C[C@H]1Cc2ccccc2N1C(=O)c1ccc(=O)n(CC(=O)N2CCN(c3ccccc3)CC2)n1 | 0 | 0.06 |
| CCC[C@H](N)C(=O)N1CCc2onc(-c3cccc4ccccc34)c2C1 | 17 | -2.29 |
| Cc1nc2cc(C(=O)N(C)C[C@@H](c3cccs3)N3CCOCC3)ccc2n1C | -6 | 0.69 |
| Fc1ccc(CN2CCn3nc(CNc4cnccn4)cc3C2)cc1F | -12 | 1.45 |
| CCC(CC)Nc1ccncc1NC(=O)c1nc(C)oc1C | -6 | 1.24 |
| O=C(c1cc(=O)[nH]c2c1CCCC2)N1CCCn2nncc2C1 | 1 | -0.15 |
| COc1c(CN(C)[C@@H]2COC[C@H]2O)c(C)nn1C | -18 | 1.97 |
| CCc1ccc(NC(=O)Cn2c(=O)[nH]c3c(oc4ccccc43)c2=O)cc1 | -5 | 0.74 |
| CCn1nc(C)c([C@H](C)NCC2=Cc3cc(Cl)ccc3OC2)c1C | 0 | -0.03 |
| Cc1nn(C)cc1-c1nc(-c2ccco2)nn1C(C)(C)C | -10 | 2.08 |
| O=C(N1CCOCC1)N1CC(Oc2cccnc2)C1 | -2 | 0.39 |
| CC1CC1C(=O)NCCCC1CCCCC1 (stereo unspecified) | -7 | 1.3 |
| CC(=O)Nc1ccc(CN(C)[C@H]2CCCN(CCCc3ccccc3)C2)cc1 | -9 | 0.79 |
| NC(=O)[C@]12CCC[C@H]1CN(C(=O)NCc1ccc(C3CC3)cc1F)C2 | -4 | 0.7 |
| CN(CC(C)(C)CO)C(=O)Cc1ccc(O)c(F)c1 | -5 | 0.93 |
| COC(=O)c1ccc(NC(=O)N(Cc2ccncc2)C2CCCCC2)cc1 | -3 | 0.49 |
| N#Cc1c(NC(=O)c2ccc(Cc3ccccc3)cc2)sc2c1CCC2 | 5 | -0.82 |
